From the supplement of paper PMC7125110
± gives the standard error. Variants at the floor of the assay are shown more often than the library holds them.

B1: glmS ribozyme (parent)
chain: AUAAAAGCGCCAGAACUACAGAAAUGUAGUUGACGAGGAGGAGGUUUAUCGAAUUUUCGGCGGAUGCCUCCAAA

Key:
Conditions in all cases: with glucosamine-6-phosphate
glucosamine-6-phosphate [1] = variants of: B1; test: self-cleavage kobs at 40 uM GlcN6P; higher = faster cleavage; RNA array
Procedure, shortened: (§1)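 Barcoded ribozyme variants on sequenced MiSeq chips were transcribed in situ by E. coli RNA polymerase and followed at 37 °C through a hybridised Cy3 probe. Glucosamine-6-phosphate at 40 μM to 10 mM in HEPES/KCl/Mg(OAc)2 buffer was flowed in, and tiles were imaged over ~14 h. Signals were normalised to baseline and to non-cleaving reference variants, and per-tile medians were fit to one- or two-exponential decays to give kobs. Weighted Michaelis–Menten fits across concentrations gave kcat and KM.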

glucosamine-6-phosphate [2] = variants of: B1; test: self-cleavage kobs at 10000 uM GlcN6P; higher = faster cleavage; RNA array
Procedure, shortened: as §1

glucosamine-6-phosphate [3] = variants of: B1; test: self-cleavage kobs at 640 uM GlcN6P; higher = faster cleavage; RNA array
Procedure, shortened: as §1

glucosamine-6-phosphate [4] = variants of: B1; test: self-cleavage kobs at 160 uM GlcN6P; higher = faster cleavage; RNA array
Procedure, shortened: as §1

glucosamine-6-phosphate [5] = variants of: B1; test: self-cleavage kobs at 2500 uM GlcN6P; higher = faster cleavage; RNA array
Procedure, shortened: as §1

G13U G40U A42C A48U C58G U65A
self-cleavage kobs at 40 uM GlcN6P (glucosamine-6-phosphate [1]): < 1e-05 s⁻¹

A14C C34A U47A A48U U65A
self-cleavage kobs at 40 uM GlcN6P (glucosamine-6-phosphate [1]): < 1e-05 s⁻¹
self-cleavage kobs at 10000 uM GlcN6P (glucosamine-6-phosphate [2]): < 1e-05 s⁻¹

G13U U45A U47A G60C
self-cleavage kobs at 40 uM GlcN6P (glucosamine-6-phosphate [1]): < 1e-05 s⁻¹
self-cleavage kobs at 10000 uM GlcN6P (glucosamine-6-phosphate [2]): < 1e-05 s⁻¹

A14G G29U
self-cleavage kobs at 40 uM GlcN6P (glucosamine-6-phosphate [1]): 0.000647 ± 0.00012 s⁻¹
self-cleavage kobs at 640 uM GlcN6P (glucosamine-6-phosphate [3]): 0.00497 ± 0.00096 s⁻¹
self-cleavage kobs at 160 uM GlcN6P (glucosamine-6-phosphate [4]): 0.00105 ± 0.00022 s⁻¹
self-cleavage kobs at 2500 uM GlcN6P (glucosamine-6-phosphate [5]): 0.00501 ± 0.0013 s⁻¹
self-cleavage kobs at 10000 uM GlcN6P (glucosamine-6-phosphate [2]): 0.0131 ± 0.0033 s⁻¹

A15G G37C G63A C68U
self-cleavage kobs at 40 uM GlcN6P (glucosamine-6-phosphate [1]): < 1e-05 s⁻¹

A14G G38U
self-cleavage kobs at 40 uM GlcN6P (glucosamine-6-phosphate [1]): < 1e-05 s⁻¹
self-cleavage kobs at 640 uM GlcN6P (glucosamine-6-phosphate [3]): < 1e-05 s⁻¹
self-cleavage kobs at 160 uM GlcN6P (glucosamine-6-phosphate [4]): < 1e-05 s⁻¹

A15U G29C
self-cleavage kobs at 40 uM GlcN6P (glucosamine-6-phosphate [1]): 4.56e-05 ± 9.9e-06 s⁻¹
self-cleavage kobs at 640 uM GlcN6P (glucosamine-6-phosphate [3]): 0.000432 ± 7.6e-05 s⁻¹
self-cleavage kobs at 160 uM GlcN6P (glucosamine-6-phosphate [4]): 0.000116 ± 3.3e-05 s⁻¹
self-cleavage kobs at 2500 uM GlcN6P (glucosamine-6-phosphate [5]): 0.000809 ± 0.00016 s⁻¹
self-cleavage kobs at 10000 uM GlcN6P (glucosamine-6-phosphate [2]): 0.00191 ± 0.0003 s⁻¹

A15G G62A
self-cleavage kobs at 40 uM GlcN6P (glucosamine-6-phosphate [1]): < 1e-05 s⁻¹
self-cleavage kobs at 160 uM GlcN6P (glucosamine-6-phosphate [4]): < 1e-05 s⁻¹
self-cleavage kobs at 2500 uM GlcN6P (glucosamine-6-phosphate [5]): < 1e-05 s⁻¹
self-cleavage kobs at 10000 uM GlcN6P (glucosamine-6-phosphate [2]): < 1e-05 s⁻¹

G13U C58U
self-cleavage kobs at 40 uM GlcN6P (glucosamine-6-phosphate [1]): < 1e-05 s⁻¹

G13U U31A A39C C68U U69A
self-cleavage kobs at 40 uM GlcN6P (glucosamine-6-phosphate [1]): < 1e-05 s⁻¹
self-cleavage kobs at 640 uM GlcN6P (glucosamine-6-phosphate [3]): < 1e-05 s⁻¹
self-cleavage kobs at 160 uM GlcN6P (glucosamine-6-phosphate [4]): < 1e-05 s⁻¹

A14C A48G U69C
self-cleavage kobs at 40 uM GlcN6P (glucosamine-6-phosphate [1]): < 1e-05 s⁻¹

A14U C34A
self-cleavage kobs at 40 uM GlcN6P (glucosamine-6-phosphate [1]): < 1e-05 s⁻¹
self-cleavage kobs at 640 uM GlcN6P (glucosamine-6-phosphate [3]): < 1e-05 s⁻¹
self-cleavage kobs at 160 uM GlcN6P (glucosamine-6-phosphate [4]): < 1e-05 s⁻¹
self-cleavage kobs at 2500 uM GlcN6P (glucosamine-6-phosphate [5]): < 1e-05 s⁻¹

A15G G43A C71G
self-cleavage kobs at 40 uM GlcN6P (glucosamine-6-phosphate [1]): < 1e-05 s⁻¹
self-cleavage kobs at 10000 uM GlcN6P (glucosamine-6-phosphate [2]): < 1e-05 s⁻¹

A15G G43U A48C
self-cleavage kobs at 40 uM GlcN6P (glucosamine-6-phosphate [1]): < 1e-05 s⁻¹
self-cleavage kobs at 2500 uM GlcN6P (glucosamine-6-phosphate [5]): < 1e-05 s⁻¹

A15C U47G G51A U56C
self-cleavage kobs at 40 uM GlcN6P (glucosamine-6-phosphate [1]): < 1e-05 s⁻¹
self-cleavage kobs at 2500 uM GlcN6P (glucosamine-6-phosphate [5]): < 1e-05 s⁻¹
self-cleavage kobs at 10000 uM GlcN6P (glucosamine-6-phosphate [2]): < 1e-05 s⁻¹

G13C U69G
self-cleavage kobs at 40 uM GlcN6P (glucosamine-6-phosphate [1]): 3.61e-05 ± 1.3e-05 s⁻¹
self-cleavage kobs at 640 uM GlcN6P (glucosamine-6-phosphate [3]): 9.44e-05 ± 2.5e-05 s⁻¹
self-cleavage kobs at 160 uM GlcN6P (glucosamine-6-phosphate [4]): 4.33e-05 ± 1.6e-05 s⁻¹

A15C A39C C68G
self-cleavage kobs at 40 uM GlcN6P (glucosamine-6-phosphate [1]): < 1e-05 s⁻¹
self-cleavage kobs at 640 uM GlcN6P (glucosamine-6-phosphate [3]): < 1e-05 s⁻¹
self-cleavage kobs at 160 uM GlcN6P (glucosamine-6-phosphate [4]): < 1e-05 s⁻¹
self-cleavage kobs at 10000 uM GlcN6P (glucosamine-6-phosphate [2]): < 1e-05 s⁻¹

C16A A53U C61U
self-cleavage kobs at 40 uM GlcN6P (glucosamine-6-phosphate [1]): < 1e-05 s⁻¹
self-cleavage kobs at 160 uM GlcN6P (glucosamine-6-phosphate [4]): < 1e-05 s⁻¹

G13U G63C
self-cleavage kobs at 40 uM GlcN6P (glucosamine-6-phosphate [1]): < 1e-05 s⁻¹
self-cleavage kobs at 640 uM GlcN6P (glucosamine-6-phosphate [3]): < 1e-05 s⁻¹
self-cleavage kobs at 160 uM GlcN6P (glucosamine-6-phosphate [4]): < 1e-05 s⁻¹
self-cleavage kobs at 10000 uM GlcN6P (glucosamine-6-phosphate [2]): < 1e-05 s⁻¹

G13U A14C A15U A53C
self-cleavage kobs at 40 uM GlcN6P (glucosamine-6-phosphate [1]): < 1e-05 s⁻¹

A14U A36G G40U A48C
self-cleavage kobs at 40 uM GlcN6P (glucosamine-6-phosphate [1]): < 1e-05 s⁻¹
self-cleavage kobs at 10000 uM GlcN6P (glucosamine-6-phosphate [2]): < 1e-05 s⁻¹

A15U C50G
self-cleavage kobs at 40 uM GlcN6P (glucosamine-6-phosphate [1]): 3.42e-05 ± 8.1e-06 s⁻¹
self-cleavage kobs at 640 uM GlcN6P (glucosamine-6-phosphate [3]): 0.000494 ± 0.00023 s⁻¹
self-cleavage kobs at 160 uM GlcN6P (glucosamine-6-phosphate [4]): 8.86e-05 ± 1.4e-05 s⁻¹
self-cleavage kobs at 2500 uM GlcN6P (glucosamine-6-phosphate [5]): 7.94e-05 ± 1.4e-05 s⁻¹

G13U G59U
self-cleavage kobs at 40 uM GlcN6P (glucosamine-6-phosphate [1]): < 1e-05 s⁻¹
self-cleavage kobs at 640 uM GlcN6P (glucosamine-6-phosphate [3]): < 1e-05 s⁻¹
self-cleavage kobs at 160 uM GlcN6P (glucosamine-6-phosphate [4]): < 1e-05 s⁻¹
self-cleavage kobs at 10000 uM GlcN6P (glucosamine-6-phosphate [2]): < 1e-05 s⁻¹
